PubChem BioAssay AID588855 (National Center for Advancing Translational Sciences (NCATS), 2011)
The whole screen tested about 410,000 compounds, of which about 5,000 (1.2%) were called active. The inconclusive results got no clear call from the source; some entries with a clear call stand among them for comparison. Calls follow the shape of the dose curve; as a rule, active = well fitted inhibition curve with a large enough effect; inconclusive = small, poorly fitted or top-dose-only effect; inactive = no such curve, though single readings can be large or run the other way. A potency beside an inconclusive call is a rough fit, not a confirmed value.

Experiment: qHTS for Inhibitors of TGF-b; also: nearly all actives have a fitted effect of over 65% in size
Settings: HepG2 CAGA-GFP TGF-b/SMAD3 reporter, GFP fluorescence, 18 h, TGF-beta stimulated, 500 pg/mL final; series mostly up to 46.1 µM
Procedure, shortened: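 Cell-based qHTS in HEPG2 carrying a CAGA-GFP Smad reporter; compounds added before 500 pg/mL final TGF-beta, 18 h incubation at 37 degrees C, GFP fluorescence quantified per cell by imaging cytometry.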
Potency is read from the fitted curve at half-maximal effect; tags tell the direction and shape of the fitted curve.

| SMILES | Potency |
| --- | --- |
| Cc1ccc2c(C)c(C(=O)NCC(c3ccc(Cl)cc3)N3CCOCC3)oc2c1 (stereo unspecified) | inconclusive: 35.5 µM [inhibitor, single point] |
| O=C(Nc1cccc(C(F)(F)F)c1)c1cccnc1NCCc1ccccc1 | inconclusive: 31.6 µM [inhibitor, partial curve, poor fit] |
| O=C(Nc1cc(S(=O)(=O)N2CCOCC2)ccc1N1CCOCC1)c1cc(=O)[nH]c2ccccc12 | inconclusive: 2.82 µM [inhibitor, single point] |
| CCN(C(=O)CSc1nc2ccccc2n1Cc1ccccc1C#N)c1ccccc1 | inactive |
| Cc1cc(Nc2ccc3c(c2)OCCO3)c2ccccc2n1 | inconclusive: 35.5 µM [inhibitor, single point] |
| CCN(CC)CCCN(C(=O)c1ccco1)c1nc(-c2ccc(Cl)cc2)cs1 | inconclusive: 35.5 µM [inhibitor, single point] |
| Clc1ccc(CSc2nccn2Cc2ccccc2)cc1 | inconclusive: 35.5 µM [inhibitor, single point] |
| COc1ccccc1N1CCN(Cc2cc(Br)c(O)c3ncccc23)CC1 | inconclusive: 5.01 µM [inhibitor, full curve] |
| CCn1nc(C)c(CN2CCCC(CO)(Cc3ccccc3)C2)c1C (stereo unspecified) | inactive |
| COc1cccc(CNC(=O)c2ccc3c(c2)N(Cc2ccc(F)cc2Cl)C(=O)c2ccccc2S3)c1 | inconclusive: 11.2 µM [inhibitor, partial curve, poor fit] |
| CCOC(=O)[C@H]1[C@H]2COc3ccc(C)cc3[C@@H]2N2C(=O)c3cc(Br)ccc3NC(=O)[C@@]12C | inconclusive: 20 µM [inhibitor, single point] |
| COCCn1c(SCC(=O)c2c(C)[nH]c3ccccc23)nc2cc(C(=O)NC(C)C)ccc2c1=O | inconclusive: 11.2 µM [inhibitor, partial curve, poor fit] |
| CC1(C)CC(=O)C2=C(C1)NC(Nc1nc3ccccc3o1)=NC2c1cccc(O)c1 (stereo unspecified) | inconclusive: 35.5 µM [inhibitor, single point] |
| CCOc1ccc(CCNC(=O)Cn2ccc3cc(S(=O)(=O)N4CCCCC4)ccc32)cc1 | inconclusive: 35.5 µM [inhibitor, single point] |
| Cc1ccsc1/C=N/NC(=O)c1nnn(-c2nonc2N)c1CN(C)c1ccccc1 | inconclusive: 11.2 µM [inhibitor, single point] |
| CCN(CC)CC(=O)Nc1sc(C)c(C)c1C(=O)c1ccc(C)cc1 | inconclusive: 17.8 µM [inhibitor, partial curve, poor fit] |
| CCCc1[nH]nc2c1C(c1ccc(OC)c(CSC3=NCCS3)c1)C(C#N)=C(N)O2 (stereo unspecified) | inconclusive: 25.1 µM [inhibitor, partial curve, poor fit] |
| O=S(=O)(Nc1nccs1)c1cnc(Cl)c(Br)c1 | inconclusive: 11.2 µM [inhibitor, partial curve, poor fit] |
| O=C(NCc1nc2ccccc2n1Cc1ccccc1Cl)c1ccccc1 | inconclusive: 6.31 µM [inhibitor, partial curve, poor fit] |
| C#CCOCCOCCOCCNc1nc(N2CCN(C(=O)CCCCCCCCCCNC(=O)[C@H](CO)n3cc(CCCSC)nn3)CC2)nc(N2CCN(C(=O)CCCCCCCCCCNC(=O)[C@H](CO)n3cc(CCCSC)nn3)CC2)n1 | inconclusive: 6.31 µM [inhibitor, partial curve] |
| Cn1c(CCc2ccccc2)nnc1SCC(=O)N1CCCC1 | inconclusive: 6.31 µM [inhibitor, single point] |
| CCOC(=O)c1sc(NC(=O)CCN2CCCCCC2)c(C(=O)OCC)c1C | inconclusive: 35.5 µM [inhibitor, single point] |

| SMILES | Potency |
| --- | --- |
| CCC(C)c1ccc(O)c(NC(=S)NC(=O)c2cccs2)c1 (stereo unspecified) | inconclusive: 17.8 µM [inhibitor, partial curve, poor fit] |
| CC(=O)Nc1cccc(-n2nnc(SCC(=O)N(C)c3ccccc3)n2)c1 | inactive |
| Cc1ccc(NC(=O)CCCn2c(=O)c3cccn3c3ccccc32)cc1Cl | inconclusive: 0.891 µM [inhibitor, full curve, poor fit] |
| COc1ccc(-c2nn(-c3ccc(F)cc3)c3c2cnc2ccc(F)cc23)cc1OC | inactive |
| Cc1ccccc1CCN(C(=O)c1csnn1)C(C(=O)NC1CCCC1)c1ccncc1 (stereo unspecified) | inactive |
| CCOC(=O)c1cc2c(N)c(C(=O)c3cc(C#N)c(SC)nc3C)sc2nc1C | inconclusive: 5.62 µM [inhibitor, single point] |
| COc1ccccc1N1CCN(S(=O)(=O)c2cn(C)nc2C)CC1 | inconclusive: 6.31 µM [inhibitor, single point] |
| N#CC(C#N)=C(N)CSc1cccc[n+]1[O-] | inconclusive: 2.24 µM [inhibitor, partial curve, poor fit] |
| CCCC(=O)N(CCc1ccc(OC)cc1)Cc1nc2ccccc2c(=O)[nH]1 | inactive |
| [O-][N+](=Cc1ccccc1)c1ccc(Cl)cc1 | inconclusive: 35.5 µM [inhibitor, single point] |
| O=C1C(c2ccncc2)N(CCC2=CCCCC2)C(=O)CN1C1CCCCC1 (stereo unspecified) | inactive |
| COc1ccc(/C=C(\C#N)c2nc(-c3cc(Cl)ccc3OC)cs2)cc1 | inactive |
| O=C1CS(=O)(=O)C2(C(=O)N(Cc3cccc(F)c3)c3ccccc32)N1c1ccccc1 (stereo unspecified) | inactive |
| CC1CC(C)CN(C(=O)Cn2cc(C=O)c3ccccc32)C1 (stereo unspecified) | inconclusive: 35.5 µM [inhibitor, single point] |
| CS(=O)(=O)Nc1ccc(C(=O)CSc2nnc(C3CC3)n2C2CC2)cc1 | inconclusive: 6.31 µM [inhibitor, single point] |
| Cn1cc(CC(=O)Nc2cccc(C#N)c2)c2ccccc21 | inconclusive: 1.78 µM [inhibitor, partial curve, poor fit] |
| Cc1ccc(/C=N/NC(=O)c2c[nH]c3ccccc23)s1 | inconclusive: 0.355 µM [inhibitor, partial curve, poor fit] |
| CCCn1c(-c2cc(OC)c(OC)c(OC)c2)nc2c1c(=O)[nH]c(=O)n2Cc1ccccc1 | inactive |
| COc1ccc(N2CCN(C(=O)c3cc4c(-c5ccccc5F)nn(C)c4s3)CC2)cc1 | inconclusive: 11.2 µM [inhibitor, partial curve] |
| Cc1cc(C)nc(N/N=C/c2cccc3ccccc23)n1 | inactive |
| COc1cc(N2C(=O)C=CC2=O)c(OC)cc1Cl | active: 11.2 µM |
| Cc1ccc(/C=N/Nc2ccc(Cl)c(C(=O)O)c2)s1 | inconclusive: 0.112 µM [inhibitor, full curve, poor fit] |

| SMILES | Potency |
| --- | --- |
| COc1ccccc1NS(=O)(=O)c1cccc(NC(=O)NC2CCCCC2)c1 | inconclusive: 25.1 µM [inhibitor, single point] |
| O=S(=O)(c1ccc(OC(F)(F)F)cc1)N1CCC(O)(c2cccc(C(F)(F)F)c2)CC1 | inconclusive: 35.5 µM [inhibitor, single point] |
| COc1ccc2nc(NCc3ccc(OC)c(OC)c3OC)sc2c1 | inconclusive: 15.8 µM [inhibitor, single point] |
| O=C(c1ccc(Cl)cc1)N1N=CCC1(O)c1ccc(Cl)cc1 (stereo unspecified) | inconclusive: 35.5 µM [inhibitor, single point] |
| O=c1nc2sc3ccccc3n2c(=O)n1-c1cccc(Cl)c1 | inactive |
| CSc1ncc(CNc2cc([N+](=O)[O-])ccc2C)c(N)n1 | inconclusive: 35.5 µM [inhibitor, single point] |
| CCCCOc1ccc(C(=O)NCc2ccccn2)cc1 | inactive |
| CC1(C(=O)NCc2ccccc2Br)CCN1Cc1ccc(-c2ccccc2)o1 (stereo unspecified) | inconclusive: 11.2 µM [inhibitor, single point] |
| O=C(CCC(=O)N1Cc2ccccc2Oc2ncccc21)Nc1ccc(Cl)cc1 | inactive |
| O=C(CN1C(=O)S/C(=C/c2cccs2)C1=O)N1CCCC1 | inactive |
| CC(=O)N1c2ccc(S(=O)(=O)NCC3CCC(C(=O)N4CC(C)CC(C)C4)CC3)cc2CC1C (stereo unspecified) | inconclusive: 20 µM [inhibitor, single point] |
| CNC(=S)NCCc1ccc(OC)cc1 | inactive |
| OC1(c2cccs2)CN(c2ccc(Cl)cc2)C2=[N+]1CCCC2 (stereo unspecified) | inconclusive: 35.5 µM [inhibitor, single point] |
| Cc1ccc(N2C(=O)C3C4C=CC(CNC(=S)N5CCN(c6ccccn6)CC5)(O4)C3C2=O)cc1 (stereo unspecified) | inconclusive: 11.2 µM [inhibitor, partial curve] |
| CN(C(=O)c1ccccc1)C(=O)c1ccccc1 | inactive |
| CCc1ccccc1N(C)C(=O)c1cn(CC(C)C)c(=O)c2cc(OC)c(OC)cc12 | inconclusive: 10 µM [inhibitor, partial curve] |
| COc1ccc(/C=N/Nc2nnc(-c3ncc[nH]3)c3ccccc23)cc1 | inactive |
| COc1cc(C(=O)NCC(c2ccco2)N2CCCC2)ccc1OCc1ccc(Cl)cc1Cl (stereo unspecified) | inconclusive: 35.5 µM [inhibitor, single point] |
| O=C(OCCOc1ccccc1)c1cc(S(=O)(=O)N2CCOCC2)c(Cl)cc1Cl | inactive |
| O=S(=O)(NCCNCC=Cc1ccc(Br)cc1)c1cccc2cnccc12 | inconclusive: 20 µM [inhibitor, single point] |
| Cc1noc(C)c1COc1ccccc1C(=O)NNC(=O)c1ccccc1F | inactive |
| CCc1nnc(NC(=O)CSc2nnc(-c3cc4ccccc4cc3O)n2CC)s1 | inconclusive: 7.94 µM [inhibitor, partial curve, poor fit] |
